Source: PubChem BioAssay AID686978 (National Center for Advancing Translational Sciences (NCATS), 2013)
Several values for one entry are separate records, joined by “and”; a condition that tells them apart may be missing. Identical values can stand only once. Among all 420,000 compounds or so, about 64,000 (15%) were called active. The inconclusive results got no clear call from the source; some entries with a clear call stand among them for comparison. Calls follow the shape of the dose curve; as a rule, active = well fitted inhibition curve with a large enough effect; inconclusive = small, poorly fitted or top-dose-only effect; inactive = flat fitted curve, though single readings scatter. Potencies beside an inconclusive call are fits to weak or partial responses and may not hold up.

test: qHTS for Inhibitors of human tyrosyl-DNA phosphodiesterase 1 (TDP1): qHTS in cells in absence of CPT; settings: DT40 Tdp1-/- hTDP1 cells, no CPT, ATP luminescence, 48 h; activity change, negative = growth inhibition: at 46.2 µM (top of the series); also: nearly all actives have a fitted effect of over 55% in size
Method in brief: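 Chicken DT40 Tdp1-/- cells stably complemented with human TDP1 were seeded at 400 cells/well with DMSO in place of 20 nM camptothecin. After compound pinning, cells grew at least 48 hr at 37 °C; viability read by CellTiter-Glo luminescence.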
% is scaled to controls: 0 for no effect and ±100 for the full control effect; potency is read from the fitted curve at half-maximal effect; tags tell the direction and shape of the fitted curve.

SMILES	Potency	activity change, negative = growth inhibition
Cc1ccc(S(=O)(=O)N2CCCCC2)cc1NC(=O)CCNC(=O)c1ccc([N+](=O)[O-])cc1	active: 16.4 µM	
CC(=O)Nc1ccc(S(=O)(=O)Nc2ccc3c(c2)OCCO3)cc1Cl	active: 7.31 µM	
CCOC(=O)C1=C(CS(=O)(=O)c2ccc(Br)cc2)NC(=O)NC1c1ccccc1 (stereo unspecified)	inconclusive: 29.1 µM [inhibitor, single point]	
CCN(CC(=O)Nc1ccccc1OC)C(=O)CSCc1ccc(C)cc1	inconclusive: 29.1 µM [inhibitor, single point]	
COc1ccc(OCC(=O)N/N=C2\CCCCc3ccccc32)cc1	inconclusive: 29.1 µM [inhibitor, single point]	
CCOC(=O)C1=C(CS(=O)(=O)c2ccccc2)NC(=O)NC1c1cccc(OC)c1 (stereo unspecified)		inconclusive: -36.2% [inhibitor]
CCOC(=O)[C@@H]1[C@H]2COc3ccc(Br)cc3[C@H]2N2C(=O)N(c3ccc(Br)cc3)C(=O)[C@]12C	inconclusive: 25.9 µM [inhibitor, single point]	
O=C(O)c1ccccc1C(=O)NC1Cc2ccccc2C1		inactive: -7.01%
CCC(CO)Nc1ccn2nc(-c3cccc(Cl)c3)cc2n1 (stereo unspecified)	active: 23.1 µM	
COC(=O)c1cccc(CC2(C)C(=O)Nc3cc(-c4ccccc4Cl)ccc32)c1 (stereo unspecified)	inconclusive: 20.6 µM [inhibitor, single point]	
CC(OC(=O)Cn1cnc2ccccc2c1=O)C(=O)N(C)c1ccccc1 (stereo unspecified)	inconclusive: 8.2 µM [inhibitor, partial curve]	
COc1ccc(Nc2ncc(C(=O)N3CCN(Cc4ccccc4)CC3)c3ccccc23)cc1	inconclusive: 29.1 µM [inhibitor, single point]	
Cc1nn(-c2ccccc2)c2c1C(c1cccc([N+](=O)[O-])c1)N(c1ccccc1)C(=O)N2 (stereo unspecified)	inconclusive: 11.6 µM [inhibitor, partial curve]	
Cc1ccc(-c2nc3c(Cl)cc(C(F)(F)F)cn3c2Cc2ccsc2)cc1	inconclusive: 25.9 µM [inhibitor, single point]	
CC(Sc1nnc(-c2ccc(O)cc2)o1)C(=O)Nc1cccc2ccccc12 (stereo unspecified)	inconclusive: 25.9 µM [inhibitor, single point]	
CC(=O)Nc1ccc(C(=O)N/N=C/c2ccccc2OCc2ccccc2)cc1	active: 20.6 µM	
C#CCOCCOCCOCCNc1nc(N2CCN(C(=O)CCCCCCCCCCNC(=O)[C@H](CO)n3cc(CCCSC)nn3)CC2)nc(N2CCN(C(=O)CCCCCCCCCCNC(=O)[C@H](CCCN=C(N)N)n3cc(C[C@@H](C)CC)nn3)CC2)n1	active: 23.1 µM	
COc1ccc(CC(=O)Nc2ccccc2C(=O)NCCc2ccccc2)cc1	inconclusive: 29.1 µM [inhibitor, single point]	
CC1=C(C(=O)N(C(C)C)C(C)C)CC(CC(=O)NCCc2ccccn2)C(=O)N1CCC1=CCCCC1 (stereo unspecified)	inconclusive: 23.1 µM [inhibitor, single point]	
CC(=O)c1c(C)oc2ccc(N(C(=O)Oc3ccccc3)S(=O)(=O)c3ccc(C(C)(C)C)cc3)cc12	active: 9.2 µM	
CCN(CC)c1ccc(NC(=O)c2ccccc2Br)cc1S(=O)(=O)Nc1ccccc1OC	active: 10.3 µM	
COc1cc(/C=C(\C#N)C(=O)Nc2cccc(C(=O)O)c2)ccc1OCc1ccc(C)cc1		inactive: -22.2%

SMILES	Potency	activity change, negative = growth inhibition
COc1ccccc1CNS(=O)(=O)c1ccc2c(c1)CC(C)N2C(=O)C1CC1 (stereo unspecified)	inconclusive: 20.6 µM [inhibitor, single point]	
COc1ccc2occ(NC(C)=O)c2c1	inconclusive: 10.3 µM [inhibitor, partial curve]	
CSCCC(NS(=O)(=O)c1cccc(C(F)(F)F)c1)C(=O)Nc1ccccc1N1CCCC1 (stereo unspecified)	inconclusive: 20.6 µM [inhibitor, single point]	
Cc1ccc(C)c(C(=O)CSc2nnnn2-c2cccnc2)c1	active: 16.4 µM	
COc1ccc(C(=O)/C=C/c2ccc(O)cc2)cc1	inconclusive: 25.9 µM [inhibitor, single point]	
O=C(c1sc2ccccc2c1Cl)N(Cc1cccs1)C1CCS(=O)(=O)C1 (stereo unspecified)	inconclusive: 11.6 µM [inhibitor, partial curve]	
CNc1ccc(-c2cccc(C(=O)N3CCOCC3)c2)cn1		inactive: -5.15%
Cc1noc(C)c1-c1cc(NC2CC2)ncn1	active: 8.2 µM	
O=C(NN=C1c2ccccc2-c2ccccc21)c1ccccc1	inconclusive: 14.6 µM [inhibitor, single point]	
CC(=O)Nc1cccc(-c2csc(C(C)(O)c3ccc(F)c(F)c3)n2)c1 (stereo unspecified)	inconclusive: 29.1 µM [inhibitor, single point]	
CCCCC(CC)COC(=O)CC(C(=O)OCC(CC)CCCC)S(=O)(=O)O (stereo unspecified)	inconclusive: 33.5 µM [inhibitor, single point]	
Cc1ccc(S(=O)(=O)NC(=NC(Cc2ccccc2)C(=O)O)c2ccccc2)cc1 (stereo unspecified)		inactive: 1.37%
O=S(=O)(CCNCc1cccs1)c1ccc(Cl)cc1		inactive: 6.53%
NCCNC(=O)Cn1c(=O)c2c3c(sc2n(Cc2ccccc2)c1=O)CCCC3	active: 23.1 µM	
COc1cccc(CN(C)C(=O)c2ccc(NC(=O)CC3SC(N4CCCC4)=NC3=O)cc2)c1OC (stereo unspecified)	inconclusive: 29.1 µM [inhibitor, single point]	
COc1ccc(C(O)(C(C)C)C(CN2CCOCC2)c2ccccc2)cc1 (stereo unspecified)	inconclusive: 23.1 µM [inhibitor, single point]	
OC[C@@H]1CN(Cc2cccnc2)C[C@H](n2cnc3c(N4CCOCC4)ncnc32)O1		inactive: -2.01%
COc1cc(/C=C(/C#N)C(=O)NC(C)c2ccccc2)cc(OC)c1O (stereo unspecified)	inconclusive: 23.1 µM [inhibitor, single point]	
CCc1ccc(NC(=O)CSc2nccn(-c3ccc4c(c3)OCCO4)c2=O)cc1	inconclusive: 29.1 µM [inhibitor, single point]	
Cc1ccc(CN2CCCn3nc(C(=O)NCCc4ccc(Cl)cc4)cc3C2=O)cc1	inconclusive: 8.2 µM [inhibitor, partial curve]	
COc1ccc2c(c1)-c1nc(NC(=O)c3cc(Cl)ccc3OC)sc1CC2	inconclusive: 7.31 µM [inhibitor, partial curve]	
CC(C)CC1NC(=O)N(CC(=O)Nc2ccc(OC(F)F)cc2)C1=O (stereo unspecified)	inconclusive: 20.6 µM [inhibitor, single point]	

SMILES	Potency	activity change, negative = growth inhibition
COc1ccc(CCN2CC(C(=O)N(C)CC(=O)Nc3ccc(F)c(F)c3F)CC2=O)cc1OC (stereo unspecified)		inactive: -2.75%
Cc1cc(OC(=O)c2cc(-c3ccc4c(c3)OCCO4)on2)ccc1Cl		inactive: -12.3%
CCCCCn1cnc2c(=S)nc(N)[nH]c21	inconclusive: 8.2 µM [inhibitor, partial curve]	
O=C(Cc1ccccc1Cl)NO	inconclusive: 6.31 µM [inhibitor, single point]	
O=C1CSC(c2ccccc2)N1c1nc(-c2ccc(Cl)cc2Cl)cs1 (stereo unspecified)	inconclusive: 23.1 µM [inhibitor, partial curve, poor fit]	
CCOC(=O)c1cc(-c2ccccc2)sc1NC(=O)c1ccc(OC)c(OC)c1	inconclusive: 20.6 µM [inhibitor, single point]	
CC(C)(C)Cc1nnc(NC(=O)CCc2ccccc2)s1		inactive: -18.4%
C=CCN1C(=O)[C@@H]2Cc3c([nH]c4ccccc34)C(c3cc(OC)c(OC)c(OC)c3)N2C1=S (stereo partly specified)	inconclusive: 29.1 µM [inhibitor, single point]	
CC/C(=N\NC(=O)c1ccc2c(c1)OCO2)c1ccccc1		inactive: 9.16%
CN1CCC(N(C)S(=O)(=O)c2ccc(NC(=O)COc3ccc(F)cc3Cl)cc2)CC1	inconclusive: 29.1 µM [inhibitor, single point]	
Cc1cc(-n2c(C)cc(C(=O)CSc3nnc4sc5ccccc5n34)c2C)no1	inconclusive: 20.6 µM [inhibitor, single point]	
CCOc1ccc(N2C(=O)CC(SC(=NC)Nc3ccc(F)cc3)C2=O)cc1 (stereo unspecified)	inconclusive: 18.4 µM [inhibitor, single point]	
O=c1oc(-c2cccs2)nc2ccccc12		inconclusive: -36.7% [inhibitor]
Cc1cccn2c(=O)nc(SCC(=O)NCc3ccccc3)nc12	inconclusive: 29.1 µM [inhibitor, single point]	
Cc1cc(C)n(-c2cc(-c3ccccc3)nc(C)n2)n1	inconclusive: 25.9 µM [inhibitor, single point]	
CCOC(=O)CCCCC(=O)c1[nH]c(=O)[nH]c1CSc1nc(-c2ccccc2)c(C#N)c(=O)[nH]1		inactive: 3.07%
CN1c2ccccc2-c2nc(SCC(=O)Nc3ccccc3C(F)(F)F)ncc2S1(=O)=O	inconclusive: 18.4 µM [inhibitor, single point]	
COC(=O)Cc1[nH]nc2c1C1(C(=O)N(Cc3ccc(Cl)cc3)c3ccccc31)C(C#N)=C(N)O2 (stereo unspecified)	inconclusive: 29.1 µM [inhibitor, single point]	
CCCCOC(=O)n1c(=O)oc2cc(S(=O)(=O)N3CCCCC3)ccc21	inconclusive: 23.1 µM [inhibitor, partial curve]	
CC(C)N(C(=O)Nc1ccc2nccnc2c1)C(C)C	inconclusive: 1.3 µM [inhibitor, full curve]	
COC(=O)C[C@H]1c2ccc(C(F)(F)F)cc2S(=O)(=O)N1Cc1ccccc1	inactive and inconclusive: 16.4 µM [inhibitor, single point]	
Cc1ccc(CSc2nc3ccc(NC(=O)C(C)C)cc3s2)cc1	inconclusive: 20.6 µM [inhibitor, single point]	
